Assay results published in PubChem BioAssay AID588342 (National Center for Advancing Translational Sciences (NCATS), 2011).
The campaign covered roughly 360,000 compounds. About 25,000 (6.9%) were called active. The shares of active, inactive and inconclusive entries below differ from those in the screen. The call rests on the fitted dose curve; in most records, active means well fitted inhibition curve with a large enough effect; inconclusive means small, poorly fitted or top-dose-only effect; inactive means flat fitted curve, though single readings scatter. A potency beside an inconclusive call is a rough fit, not a confirmed value.

These compounds were tested against Luciferin 4-monooxygenase (Photinus pyralis) (UniProt P08659) (assay: qHTS profiling assay for firefly luciferase inhibitor/activator using purifed enzyme and Km concentrations of substrates (counterscreen for miR-21 project)). Conditions: purified FLuc, luminescence inhibition; activity change, negative = inhibition: at 57.5 µM (top of the series).
Method in brief: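 Purified P. pyralis luciferase (10nM final) with 10uM D-luciferin and 10uM ATP (Km levels) in 50mM Tris acetate pH 7.5, 10mM Mg acetate, 0.01% Tween-20, 0.05% BSA; qHTS 6-point titration, ~60 µM downward; luminescence read.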
Further: nearly all actives have a fitted effect of over 55% in size.
Potency means the concentration at half of the fitted maximal effect; tags describe the fitted curve by direction and shape.
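Wherever activity change, negative = inhibition is given: plate controls were vehicle for no effect and reference inhibitor for full effect.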

UniProt P08659, sequence (P08659 whole entry, looked up): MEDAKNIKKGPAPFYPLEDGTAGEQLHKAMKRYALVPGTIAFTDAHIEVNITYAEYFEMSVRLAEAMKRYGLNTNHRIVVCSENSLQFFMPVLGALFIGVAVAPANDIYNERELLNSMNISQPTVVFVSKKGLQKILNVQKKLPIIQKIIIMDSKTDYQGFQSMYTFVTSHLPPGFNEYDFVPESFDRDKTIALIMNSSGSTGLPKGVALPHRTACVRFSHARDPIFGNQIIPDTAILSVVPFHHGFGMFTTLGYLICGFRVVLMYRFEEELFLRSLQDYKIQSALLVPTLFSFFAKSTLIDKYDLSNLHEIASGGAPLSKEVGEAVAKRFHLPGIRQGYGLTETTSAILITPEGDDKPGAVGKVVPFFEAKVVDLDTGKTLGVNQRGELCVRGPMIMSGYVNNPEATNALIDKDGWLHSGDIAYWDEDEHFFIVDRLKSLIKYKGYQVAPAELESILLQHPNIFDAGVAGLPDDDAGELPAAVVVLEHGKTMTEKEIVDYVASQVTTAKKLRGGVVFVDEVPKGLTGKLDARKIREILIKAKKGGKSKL

SMILES | Potency | activity change, negative = inhibition
Cc1ccc(-c2ccc(/C=C(\C#N)C(N)=S)o2)c([N+](=O)[O-])c1 | inconclusive: 5.36 µM [inhibitor, full curve, poor fit] | 
O=C(O)c1ccc(N/N=C/c2cc3ccccc3nc2Cl)cc1 | active: 0.757 µM | 
COCCN(C(=O)COC(=O)/C=C/c1nc2ccccc2s1)c1c(N)n(Cc2ccccc2)c(=O)[nH]c1=O | active: 21.3 µM | 
NC(=S)N/N=C/c1ccc(-n2nncc2-c2ccc(Cl)cc2)cc1 | inconclusive: 30.1 µM [inhibitor, partial curve, poor fit] | 
Cc1cc(C)nc(SCC(=O)Oc2ccc3oc(=O)cc(C)c3c2)n1 | inconclusive: 23.9 µM [inhibitor, partial curve, poor fit] | 
CCOc1ccc(-c2cc(-c3nc(-c4ccc(OC)c(OC)c4)no3)[nH]n2)cc1 | active: 19 µM | 
Cc1sc(NC(=O)/C=C/C(=O)O)c(C(N)=O)c1-c1ccc(C(C)(C)C)cc1 | inconclusive: 37.9 µM [inhibitor, partial curve, poor fit] | 
CCOC(=O)c1ccc(NC(=O)NC(C)C2CCCO2)cc1 (stereo not given) | inconclusive: 16.9 µM [inhibitor, partial curve, poor fit] | 
CC(=O)c1ccc(NC(=O)CC(c2cccs2)N2Cc3ccccc3C2=O)cc1 (stereo not given) |  | inactive: -10.1%
COc1ccc(Cc2nc3ccccc3n2Cc2ccccc2F)cc1 | inconclusive: 30.1 µM [inhibitor, partial curve, poor fit] | 
COc1ccc(-n2c(SCC(=O)Nc3cccc(S(N)(=O)=O)c3)nc3ccccc3c2=O)cc1OC |  | inactive: -0.467%
CC1CCCN(c2ccc(C(=O)Nc3ccc4c(c3)OCO4)cc2[N+](=O)[O-])C1 (stereo not given) | inconclusive: 37.9 µM [inhibitor, partial curve, poor fit] | 
CCOc1cc2c(cc1/C=C(/C#N)c1ccc(C(=O)O)cc1)OCO2 | inconclusive: 26.9 µM [inhibitor, partial curve] | 
O=C(O)c1ccc(-c2nc(-c3ccccc3)c(-c3cccs3)[nH]2)cc1 | inconclusive: 37.9 µM [inhibitor, partial curve, poor fit] | 
O=C(c1ccc(-c2ccccc2)cc1)N1CCN(c2ccccc2)CC1 | inconclusive: 15.1 µM [inhibitor, partial curve] | 
O=C(C=C1SCCS1)/C=C/c1ccco1 | active: 1.35 µM | 
COc1ccc(NC(=S)NN2C(C)CCCC2C)cc1 (stereo not given) |  | inactive: 5.45%
CN(CC(=O)Nc1ccc(Cl)c(Cl)c1)CC(=O)Nc1ccc2c(c1)OCO2 |  | inactive: -10.8%
CCOc1ccc2c(c1)NC(c1cccs1)=NC(c1ccc(F)cc1)=N2 | inconclusive: 16.9 µM [inhibitor, partial curve, poor fit] | 
O=C(Nc1ccc(Br)cc1F)N1CCC2(CC1)Oc1ccccc1C(=O)N2Cc1ccccc1F |  | inactive: -0.606%
COc1ccc(N2CCN(c3nc4ccc(C)cc4n4nnnc34)CC2)cc1 |  | inactive: -0.487%
O=c1cc(O)c2sc3nc(C(F)(F)F)c4c(c3c2[nH]1)CCCCC4 | active: 19 µM | 
Cc1cccn2cc(-c3cccc(S(=O)(=O)N4CCOCC4)c3)nc12 | inconclusive: 19 µM [inhibitor, partial curve] | 
CSc1nc2ccc(NC(=O)c3ccc(=O)[nH]c3)cc2s1 | inconclusive: 23.9 µM [inhibitor, partial curve] | 

SMILES | Potency | activity change, negative = inhibition
COc1ccc2occ(CC(=O)Nc3ccc(S(=O)(=O)Nc4nc(C)cc(C)n4)cc3)c2c1 | inconclusive: 37.9 µM [inhibitor, partial curve, poor fit] | 
OCC1CCCN(C(=S)Nc2ccc(Nc3ccccc3)cc2)C1 (stereo not given) | active: 9.53 µM | 
Cn1cnc(S(=O)(=O)N2CCC(C(=O)N3CCN(c4ccccc4F)CC3)CC2)c1 |  | inactive: -0.63%
CCOC(=O)Cn1c(O)c(N=NC(=O)OC)c2ccccc21 |  | inactive: 2.65%
N#Cc1c(NC(=O)CSc2ncn[nH]2)sc2c1CCCC2 | active: 8.49 µM | 
O=C(O)c1ccccc1SCc1cn2ccccc2n1 | inconclusive: 26.9 µM [inhibitor, single point] | 
Cc1ccc(N2CC(O)Cn3c2nc2c3c(=O)[nH]c(=O)n2C)cc1 (stereo not given) | inconclusive: 6.75 µM [inhibitor, single point] | 
c1ccc2c(c1)nnn1c3ccccc3nc21 | active: 4.78 µM | 
CCOC(=O)C1=C(C)NC(=S)NC1c1ccc(OCC(=O)N2CCCCC2)cc1 (stereo not given) |  | inactive: -1.32%
Cc1ccc(-n2ncc3c(NNC(=O)c4ccco4)ncnc32)cc1Cl | active: 8.49 µM | 
CCC(OC(=O)c1ccco1)C(=O)NC1CCCC1 (stereo not given) |  | inactive: 1.83%
Cc1cc(C)cc(NS(=O)(=O)c2ccc3[nH]cc(C(=O)NCc4ccccc4Cl)c(=O)c3c2)c1 | inconclusive: 13.5 µM [inhibitor, partial curve, poor fit] | 
COc1ccccc1NS(=O)(=O)c1cc(NC(C)=O)ccc1N1CCCCC1 | inconclusive: 21.3 µM [inhibitor, partial curve, poor fit] | 
C/C(=C\c1ccccc1)C(=O)Nc1nc2ccc([N+](=O)[O-])cc2s1 | inconclusive: 7.57 µM [inhibitor, full curve] | 
O=C(CSc1nnc(-c2ccc([N+](=O)[O-])cc2)o1)Nc1ccccc1 | inconclusive: 23.9 µM [inhibitor, partial curve, poor fit] | 
O=C(c1cc2ccccc2o1)N1CCN=C1SCc1cccnc1 | inconclusive: 30.1 µM [inhibitor, partial curve, poor fit] | 
COc1cc(NC(=O)Cn2c(=O)n(Cc3ccco3)c(=O)c3oc4ccccc4c32)cc(OC)c1 |  | inactive: -1.65%
CN(C)S(=O)(=O)c1cccc(C(=O)Nc2ccccc2)c1 | inconclusive: 37.9 µM [inhibitor, partial curve, poor fit] | 
CN(C1CCCCC1)S(=O)(=O)c1ccc2c(c1)c(=O)c(C(=O)N1CCN(c3ccccc3F)CC1)cn2C |  | inactive: -2.05%
N/C(=N\OC(=O)c1cc(-c2ccccc2)nc2ccccc12)c1cccnc1 | inconclusive: 23.9 µM [inhibitor, single point] | 
COc1ccccc1/C=C/C=N/NC(=O)c1ccncc1 | inconclusive: 30.1 µM [inhibitor, partial curve, poor fit] | 
CCN(c1cccc(C)c1)S(=O)(=O)c1nnc(NC(=O)c2ccccc2Cl)s1 | active: 13.5 µM | 
Nc1ccc(S(=O)(=O)Nc2nccc(/C=C/c3ccc([N+](=O)[O-])cc3)n2)cc1 |  | inactive: 3.5%
O=C(CSc1nnc(NC(=O)c2c(F)cccc2F)s1)NCC1CCCO1 (stereo not given) |  | inactive: -3.27%

SMILES | Potency | activity change, negative = inhibition
COc1cc(-c2noc(CCC(N)=O)n2)cc(OC)c1OC |  | inactive: 0.257%
N#Cc1c2c(c(-c3ccccc3)[nH]c1=O)CCCC2 | inconclusive: 9.53 µM [inhibitor, partial curve, poor fit] | 
Cc1ccc(NC(=O)C(=O)c2cc(C)n(-c3ccc(F)cc3)c2C)cc1C | inconclusive: 23.9 µM [inhibitor, partial curve] | 
CCCCC(=O)NC(=S)NNC(=O)c1ccc(OC)cc1 |  | inactive: 2.69%
COCCNc1nc(-n2nc(C)cc2C)nc2sc3c(c12)CCCC3 | inconclusive: 23.9 µM [inhibitor, single point] | 
Cc1cc(C)cc(-n2ncc3c2CCCC3NC(=O)c2csnn2)c1 (stereo not given) | inconclusive: 37.9 µM [inhibitor, partial curve, poor fit] | 
O=C(Cc1noc2ccccc12)NNC(=S)Nc1ccc(Cl)cc1 | inconclusive: 23.9 µM [inhibitor, partial curve, poor fit] | 
Nc1c(-c2cccc([N+](=O)[O-])c2)nc2ccccn12 | active: 16.9 µM | 
O=c1oc2ccccc2c(O)c1/C=C1\C=Nc2ccccc21 | active: 26.9 µM | 
CCCN(CCC)S(=O)(=O)c1ccc2c(c1)N(CC(=O)NC(C)c1ccccc1)C(=O)CS2 (stereo not given) |  | inactive: -7.34%
O=C(O)c1c(-c2ccc(Cl)cc2)cn2ccccc12 | inconclusive: 21.3 µM [inhibitor, partial curve, poor fit] | 
CCc1nnc(NC(=O)c2cccnc2)s1 | inconclusive: 37.9 µM [inhibitor, partial curve, poor fit] | 
COc1cccc(C(=O)NOCc2ccc(C)cc2)c1OC | inconclusive: 12 µM [inhibitor, partial curve, poor fit] | 
Cc1ccnc(N2C(=O)c3ccccc3C2Nc2ccc3c(c2)OCCO3)c1 (stereo not given) | inconclusive: 37.9 µM [inhibitor, single point] | 
CCOC(=O)Cc1csc(NC(=O)Nc2cccs2)n1 | active: 21.3 µM | 
Cc1ccc(S(=O)(=O)N(C)C)cc1NC(=O)COC(=O)c1ccc2ccccc2n1 |  | inactive: -12.9%
CCCCCCSc1ccc([C@H]2N[C@@](C)(C(=O)OC)[C@H]3C(=O)N(C)C(=O)[C@@H]23)cc1 | inconclusive: 16.9 µM [inhibitor, partial curve] | 
Cc1ccc2nc(CNC(=O)c3ccccc3)[nH]c2c1 | inconclusive: 19 µM [inhibitor, partial curve] | 
Cc1ccc(S(=O)(=O)CCC(=O)c2cccc([N+](=O)[O-])c2)cc1 | inconclusive: 21.3 µM [inhibitor, partial curve, poor fit] | 
CCCCn1c(N)c(N(CCOC)C(=O)c2oc3ccc(OC)cc3c2C)c(=O)[nH]c1=O |  | inactive: 2.03%
COCC1CCCN(C(=O)c2cc(COc3cncc(Cl)c3)on2)C1 (stereo not given) | inconclusive: 26.9 µM [inhibitor, single point] | 
Cc1cccn2c(=O)c(C(=O)NCCc3ccccc3)c(O)nc12 | inconclusive: 15.1 µM [inhibitor, partial curve, poor fit] | 
